Out of some 310,000 compounds screened, about 14,000 (4.5%) showed an effect of 50% or more. Effects have a minus sign here. The list shows a part of the results.
target: human ether-à-go-go-related gene (hERG) potassium channel (human, UniProt Q12809); experiment: primary screen, population patch clamp on CHO cells stably expressing hERG
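Also: peak tail current of the secondary pulse compared with the same well before compound.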

Sequence of human ether-à-go-go-related gene (hERG) potassium channel (Q12809 whole entry, looked up): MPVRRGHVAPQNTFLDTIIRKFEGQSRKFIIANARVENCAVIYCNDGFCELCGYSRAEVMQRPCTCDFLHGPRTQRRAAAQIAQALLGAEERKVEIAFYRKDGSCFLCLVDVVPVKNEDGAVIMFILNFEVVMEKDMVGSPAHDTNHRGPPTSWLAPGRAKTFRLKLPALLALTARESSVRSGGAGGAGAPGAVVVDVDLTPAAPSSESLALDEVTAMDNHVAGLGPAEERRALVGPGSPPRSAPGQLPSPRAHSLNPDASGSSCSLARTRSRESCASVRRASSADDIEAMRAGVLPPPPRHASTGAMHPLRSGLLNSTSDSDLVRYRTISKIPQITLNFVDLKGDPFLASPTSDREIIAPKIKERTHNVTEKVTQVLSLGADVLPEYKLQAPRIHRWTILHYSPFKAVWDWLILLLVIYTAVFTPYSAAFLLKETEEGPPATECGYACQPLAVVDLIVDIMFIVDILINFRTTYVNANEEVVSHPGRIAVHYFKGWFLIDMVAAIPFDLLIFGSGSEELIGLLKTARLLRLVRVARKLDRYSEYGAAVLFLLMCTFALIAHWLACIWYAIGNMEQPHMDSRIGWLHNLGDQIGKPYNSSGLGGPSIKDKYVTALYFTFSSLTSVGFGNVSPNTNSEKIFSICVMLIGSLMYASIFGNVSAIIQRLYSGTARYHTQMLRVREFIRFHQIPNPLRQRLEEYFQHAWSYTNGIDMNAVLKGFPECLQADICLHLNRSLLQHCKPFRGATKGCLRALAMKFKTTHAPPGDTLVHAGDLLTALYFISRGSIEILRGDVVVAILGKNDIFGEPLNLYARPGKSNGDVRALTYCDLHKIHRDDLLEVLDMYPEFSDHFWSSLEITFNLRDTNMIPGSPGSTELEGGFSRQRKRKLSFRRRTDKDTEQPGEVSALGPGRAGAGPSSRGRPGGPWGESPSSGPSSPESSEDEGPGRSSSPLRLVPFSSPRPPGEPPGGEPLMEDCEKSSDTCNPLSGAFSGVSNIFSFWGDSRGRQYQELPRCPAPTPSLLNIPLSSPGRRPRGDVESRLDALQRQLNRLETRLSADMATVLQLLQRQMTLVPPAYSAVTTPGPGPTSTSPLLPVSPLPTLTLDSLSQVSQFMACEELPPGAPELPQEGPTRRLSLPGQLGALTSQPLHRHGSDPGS

Structure (SMILES)	hERG current change (%, negative = inhibition) at 10uM
CCCC[N+](CCCC)(CCCC)CCCC.Nc1ncnc2c1ncn2[C@@H]1O[C@H](COS(=O)(=O)[O-])[C@@H](O)[C@H]1O	6.69%
NC(=S)N/N=C/c1ccccc1	20.2%
Cc1ccc(CC(=O)NCc2cccnc2)cc1	34.3%
Cc1ccc(-n2c(SCC(=O)NC3CCS(=O)(=O)C3)nc3ccccc3c2=O)cc1 (centres unmarked)	12.8%
Cc1nnc(C)n1/N=C/c1cccnc1	14.8%
Cc1ccc(C(=O)Nc2cnc3ccccc3c2)cc1	-1.69%
O=C(CCc1ccccc1)Nc1ccnn1C1CCN(C/C=C/c2ccccc2)CC1	-72.1%
C=CCn1c(CCNC(=O)c2ccccc2F)nnc1SCC(=O)Nc1ccc(OC)cc1	3.94%
CCOc1c(C)cc2[nH]c(CCC(=O)O)nc2c1C.Cl	-0.00982%
CS(=O)(=O)N1CCc2cc(-c3csc(NC(=O)Cc4cccs4)n3)ccc21	-17%
C/C(Cl)=C\Cn1c(NCCc2ccccc2)nc2c1c(=O)n(C)c(=O)n2C	-9.3%
CCc1ccc(NC(=O)[C@H](C)NC(=O)C2CCN(C(=O)[C@@H](N)C(C)C)CC2)cc1.Cl	4.85%
O=C(CSc1ccc(C(F)(F)F)cc1[N+](=O)[O-])NCCOc1ccccc1	3.64%
O=C(CSc1nc2cc([N+](=O)[O-])ccc2n1-c1ccccc1)NCc1ccc2c(c1)OCO2	2.65%
O=C(Cn1c(=O)[nH]c2ccccc2c1=O)N1CCN(Cc2ccc3c(c2)OCO3)CC1	0.172%
CC(C)(C)c1ccc(C2CC2C(=O)N/N=C\c2ccc[nH]2)cc1 (centres unmarked)	-2.94%
CC(C)CCNC(=O)Cn1c2c(c(-c3ccccc3Cl)cc1=O)CCC2	-30.8%
COc1ccccc1N1C(=O)CC(Sc2nccc(C)n2)C1=O (centres unmarked)	21.9%
COc1ccc(N2CCN(C(=O)c3ccc(NC(=O)C4=CSCCO4)cc3)CC2)cc1	-7.63%
O=C1C2(CCC13COC(c1ccc(O)cc1)OC3)COC(c1ccc(O)cc1)OC2 (centres unmarked)	-2.43%
Cc1ccc(C(=O)N/N=C\c2ccc[nH]2)cn1	15.8%
CCOc1ccc(C(=O)C(C)OC(=O)c2cnc(C)cn2)cc1 (centres unmarked)	-18.6%
COc1cc(C(=O)Nc2cc(C(F)(F)F)ccc2-n2cncn2)cc(OC)c1OC	-17.7%

From paper PMC4336329 (PLoS ONE, 2015)
